These are yes or no findings as the source states them, for the method shown. Binding seen in cells or lysates may run through a third protein. Some entries that bind do so weakly or less than the wild type. Tags and fused reporters may be left off the sequences shown.
Experiments:
[1] = biological target: T1, YFP-tagged AC9 (human) (UniProt O60503); assay: proximity ligation; HEK293 cells expressing YFP(GFP)-tagged AC9 and Myc-tagged POPDC proteins, fixed; antibodies against GFP and MYC; competition by overexpressed Flag-AC9, POPDC1-Flag or EGFR (control); high content microscopy
T1 sequence: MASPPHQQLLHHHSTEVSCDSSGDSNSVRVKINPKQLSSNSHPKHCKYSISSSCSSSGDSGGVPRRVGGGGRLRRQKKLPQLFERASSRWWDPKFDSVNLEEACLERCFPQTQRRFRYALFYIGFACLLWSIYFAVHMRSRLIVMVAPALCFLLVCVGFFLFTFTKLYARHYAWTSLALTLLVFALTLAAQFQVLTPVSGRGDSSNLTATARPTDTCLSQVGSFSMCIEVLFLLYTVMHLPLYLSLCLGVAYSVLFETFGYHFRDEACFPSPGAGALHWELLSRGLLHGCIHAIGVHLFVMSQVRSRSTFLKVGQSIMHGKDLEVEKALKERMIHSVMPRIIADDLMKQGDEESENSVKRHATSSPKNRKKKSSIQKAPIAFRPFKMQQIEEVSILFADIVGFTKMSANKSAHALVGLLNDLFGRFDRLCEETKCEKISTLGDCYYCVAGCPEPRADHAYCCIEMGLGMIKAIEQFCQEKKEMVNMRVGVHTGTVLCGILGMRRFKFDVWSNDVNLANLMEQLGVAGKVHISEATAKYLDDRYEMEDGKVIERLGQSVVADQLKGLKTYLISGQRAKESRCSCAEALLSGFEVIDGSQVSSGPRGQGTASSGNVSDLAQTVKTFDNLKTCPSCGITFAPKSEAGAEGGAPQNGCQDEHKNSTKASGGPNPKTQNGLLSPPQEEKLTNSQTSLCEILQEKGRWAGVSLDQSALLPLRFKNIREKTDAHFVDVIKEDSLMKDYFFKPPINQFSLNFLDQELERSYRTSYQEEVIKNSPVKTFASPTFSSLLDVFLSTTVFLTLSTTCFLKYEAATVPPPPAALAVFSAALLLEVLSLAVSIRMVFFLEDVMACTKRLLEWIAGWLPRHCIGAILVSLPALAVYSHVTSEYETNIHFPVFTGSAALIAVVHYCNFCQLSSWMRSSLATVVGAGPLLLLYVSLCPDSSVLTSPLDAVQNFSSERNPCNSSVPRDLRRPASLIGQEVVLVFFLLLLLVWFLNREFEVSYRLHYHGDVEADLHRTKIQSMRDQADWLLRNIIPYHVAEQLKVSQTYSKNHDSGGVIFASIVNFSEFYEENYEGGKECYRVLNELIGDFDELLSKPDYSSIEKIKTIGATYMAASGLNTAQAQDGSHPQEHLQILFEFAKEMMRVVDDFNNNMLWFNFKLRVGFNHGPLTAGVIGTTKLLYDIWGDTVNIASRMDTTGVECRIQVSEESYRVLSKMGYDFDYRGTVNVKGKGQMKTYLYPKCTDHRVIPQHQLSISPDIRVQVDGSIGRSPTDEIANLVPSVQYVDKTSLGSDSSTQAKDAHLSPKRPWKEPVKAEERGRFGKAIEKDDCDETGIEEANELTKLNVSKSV

[2] = biological target: T2, endogenous POPDC1 of neonatal rat cardiomyocytes (rat (endogenous in neonatal cardiomyocytes)) (UniProt Q3BCU4); assay: proximity ligation; neonatal rat cardiomyocytes infected with adenovirus for Flag-tagged AC9 or Flag-tagged GFP; antibodies against Flag and endogenous POPDC1, POPDC2 or Gβγ
T2 sequence: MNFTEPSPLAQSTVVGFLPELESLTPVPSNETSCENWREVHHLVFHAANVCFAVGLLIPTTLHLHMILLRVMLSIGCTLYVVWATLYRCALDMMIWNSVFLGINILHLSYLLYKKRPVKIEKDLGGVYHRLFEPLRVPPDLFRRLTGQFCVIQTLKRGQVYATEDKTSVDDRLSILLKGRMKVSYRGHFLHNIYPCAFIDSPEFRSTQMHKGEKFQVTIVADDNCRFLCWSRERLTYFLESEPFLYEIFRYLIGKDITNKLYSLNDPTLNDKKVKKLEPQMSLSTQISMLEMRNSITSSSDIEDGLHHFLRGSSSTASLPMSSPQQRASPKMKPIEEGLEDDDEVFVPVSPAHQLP

B1: POPDC1-Flag (protein, UniProt Q9ES83 1-358)
chain: MNSTESIPLAQSTVAGFTSELESLTPVPSNETTCENWREIHHLVFHVANVCFAVGLLIPTTLHLHMILLRVMLSLGCTLYVVWATLYRCALDVMIWNSVFLGINILHLSYLLYKKRPVKIEKELGGVYHRLFEPLRVPPDLFRRLTGQFCMIQTLKRGQVYATEDKTSVDDRLSILLKGRMKVSYRGHFLHNIYPCAFIDSPEFRSTQMHKGEKFQVTIVADDNCRFLCWSRERLTYFLESEPFLYEIFRYLIGKDITNKLYSLNDPTLNDKKVKKLEPQMSLCTQISMLEMRNSITSSSDGEDGLHHFLRGSSSTASLPMSSPQQRASAKMKPIEEGVEDDDEVFVSPDALKVHQLP
For B1, the binding [1] was “binds”.

B2: Flag-tagged AC9, adenovirally expressed (enzyme, UniProt O60503 1-1353)
chain: MASPPHQQLLHHHSTEVSCDSSGDSNSVRVKINPKQLSSNSHPKHCKYSISSSCSSSGDSGGVPRRVGGGGRLRRQKKLPQLFERASSRWWDPKFDSVNLEEACLERCFPQTQRRFRYALFYIGFACLLWSIYFAVHMRSRLIVMVAPALCFLLVCVGFFLFTFTKLYARHYAWTSLALTLLVFALTLAAQFQVLTPVSGRGDSSNLTATARPTDTCLSQVGSFSMCIEVLFLLYTVMHLPLYLSLCLGVAYSVLFETFGYHFRDEACFPSPGAGALHWELLSRGLLHGCIHAIGVHLFVMSQVRSRSTFLKVGQSIMHGKDLEVEKALKERMIHSVMPRIIADDLMKQGDEESENSVKRHATSSPKNRKKKSSIQKAPIAFRPFKMQQIEEVSILFADIVGFTKMSANKSAHALVGLLNDLFGRFDRLCEETKCEKISTLGDCYYCVAGCPEPRADHAYCCIEMGLGMIKAIEQFCQEKKEMVNMRVGVHTGTVLCGILGMRRFKFDVWSNDVNLANLMEQLGVAGKVHISEATAKYLDDRYEMEDGKVIERLGQSVVADQLKGLKTYLISGQRAKESRCSCAEALLSGFEVIDGSQVSSGPRGQGTASSGNVSDLAQTVKTFDNLKTCPSCGITFAPKSEAGAEGGAPQNGCQDEHKNSTKASGGPNPKTQNGLLSPPQEEKLTNSQTSLCEILQEKGRWAGVSLDQSALLPLRFKNIREKTDAHFVDVIKEDSLMKDYFFKPPINQFSLNFLDQELERSYRTSYQEEVIKNSPVKTFASPTFSSLLDVFLSTTVFLTLSTTCFLKYEAATVPPPPAALAVFSAALLLEVLSLAVSIRMVFFLEDVMACTKRLLEWIAGWLPRHCIGAILVSLPALAVYSHVTSEYETNIHFPVFTGSAALIAVVHYCNFCQLSSWMRSSLATVVGAGPLLLLYVSLCPDSSVLTSPLDAVQNFSSERNPCNSSVPRDLRRPASLIGQEVVLVFFLLLLLVWFLNREFEVSYRLHYHGDVEADLHRTKIQSMRDQADWLLRNIIPYHVAEQLKVSQTYSKNHDSGGVIFASIVNFSEFYEENYEGGKECYRVLNELIGDFDELLSKPDYSSIEKIKTIGATYMAASGLNTAQAQDGSHPQEHLQILFEFAKEMMRVVDDFNNNMLWFNFKLRVGFNHGPLTAGVIGTTKLLYDIWGDTVNIASRMDTTGVECRIQVSEESYRVLSKMGYDFDYRGTVNVKGKGQMKTYLYPKCTDHRVIPQHQLSISPDIRVQVDGSIGRSPTDEIANLVPSVQYVDKTSLGSDSSTQAKDAHLSPKRPWKEPVKAEERGRFGKAIEKDDCDETGIEEANELTKLNVSKSV
In the case of B2, the binding [2] is reported as “binds”.

Source: publication PMC9724675
